Data from patent US20240218054A1.

Target: recombinant YFV E protein (soluble E, sE; YFV Asibi strain) (Yellow fever virus, Asibi strain)
Assay: BLI monovalent (IgG on tip)

B1: ADI-50536 (antibody, V domains shown)
VH: QVQLVESGSELKKPGASVKVSCKASGYTFTSYAMNWVRQAPGQGLEWMGWINTNTGNPTYAQGFTGRFVFSLDTSVSTAYLQISSLKAEDTAVYYCVRGYCSSTSCYGGLYWFDPWGQGTLVTVSS
VL: DIRVTQSPSSLSASVGDRVTIT[about 80 residues not given here]FGGGTKVDIK
B1 was tested, and the Kd was over 100 nM.
